Source: PMC7757826
No constants are given. Whether binding was seen depends on the method and setting. Binding seen in cells or lysates may run through a third protein. Some binding calls cover weakened binding; strength is not graded here.

Amino acid sequences for entries named in this document (tags omitted).
UniProt P21926: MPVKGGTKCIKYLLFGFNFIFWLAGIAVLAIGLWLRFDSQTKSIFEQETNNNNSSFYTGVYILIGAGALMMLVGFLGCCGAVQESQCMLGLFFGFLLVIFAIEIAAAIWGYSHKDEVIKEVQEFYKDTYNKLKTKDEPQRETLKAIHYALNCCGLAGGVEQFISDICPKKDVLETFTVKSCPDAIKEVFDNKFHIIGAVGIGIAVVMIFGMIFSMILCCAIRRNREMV
UniProt O95832: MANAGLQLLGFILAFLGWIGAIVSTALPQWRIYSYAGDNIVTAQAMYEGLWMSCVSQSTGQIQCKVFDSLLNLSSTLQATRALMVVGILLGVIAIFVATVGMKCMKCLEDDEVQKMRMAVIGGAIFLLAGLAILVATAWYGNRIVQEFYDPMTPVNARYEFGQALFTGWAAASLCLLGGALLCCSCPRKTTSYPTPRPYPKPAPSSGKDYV
UniProt O14493: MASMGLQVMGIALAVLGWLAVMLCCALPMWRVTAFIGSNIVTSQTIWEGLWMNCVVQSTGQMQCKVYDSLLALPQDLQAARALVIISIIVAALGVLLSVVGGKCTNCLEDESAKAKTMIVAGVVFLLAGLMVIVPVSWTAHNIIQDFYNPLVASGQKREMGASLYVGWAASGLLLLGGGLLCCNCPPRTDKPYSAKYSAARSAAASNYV

T1: claudin-7 (human (endogenous in A2780, OVCAR-3, SKOV-3 and A2780cis cells)) (UniProt O95471)
T1 sequence: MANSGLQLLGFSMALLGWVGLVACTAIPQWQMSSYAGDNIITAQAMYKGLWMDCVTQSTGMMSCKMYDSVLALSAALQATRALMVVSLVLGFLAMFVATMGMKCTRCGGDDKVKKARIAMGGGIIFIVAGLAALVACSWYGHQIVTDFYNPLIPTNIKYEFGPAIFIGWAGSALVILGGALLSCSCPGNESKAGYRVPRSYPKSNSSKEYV

T2: CD82 (Tspan-27) (human (endogenous in A2780, OVCAR-3, SKOV-3 and A2780cis cells)) (UniProt P27701)
T2 sequence: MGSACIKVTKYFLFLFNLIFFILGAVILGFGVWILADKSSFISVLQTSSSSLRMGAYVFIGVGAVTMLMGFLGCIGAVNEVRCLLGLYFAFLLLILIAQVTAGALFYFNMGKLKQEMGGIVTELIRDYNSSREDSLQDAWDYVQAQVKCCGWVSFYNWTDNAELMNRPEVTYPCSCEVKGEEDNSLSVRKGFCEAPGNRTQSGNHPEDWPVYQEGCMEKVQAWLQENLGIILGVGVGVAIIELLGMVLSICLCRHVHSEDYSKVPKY

B1: Epithelial cell adhesion molecule (EpCAM) (protein, UniProt P16422 24-314)
chain: QEECVCENYKLAVNCFVNNNRQCQCTSVGAQNTVICSKLAAKCLVMKAEMNGSKLGRRAKPEGALQNNDGLYDPDCDESGLFKAKQCNGTSMCWCVNTAGVRRTDKDTEITCSERVRTYWIIIELKHKAREKPYDSKSLRTALQKEITTRYQLDPKFITSILYENNVITIDLVQNSSQKTQNDVDIADVAYYFEKDVKGESLFHSKKMDLTVNGEQLDLDPGQTLIYYVDEKAPEFSMQGLKAGVIAVIVVVVIAVVAGIVVLVISRKKRMAKYEKAEIKEMGEMHRELNA

How the values were obtained:
[1] = target: T1, claudin-7 (human (endogenous in A2780, OVCAR-3, SKOV-3 and A2780cis cells)); assay: condition: only cells treated with 50 μM 2-BP (palmitoylation inhibitor); co-IP; A2780 cells treated with the palmitoylation inhibitor 2-BP (50 μM, 20 h, 37 °C), RIPA buffer; anti-CD82 or anti-claudin-7 precipitates
[2] = target: T2, CD82 (Tspan-27) (human (endogenous in A2780, OVCAR-3, SKOV-3 and A2780cis cells)); assay: co-IP; tumours of SKOV-3 xenograft nude mice, homogenised in 50 mM Tris-HCl pH 8.0, 150 mM NaCl, 1% Triton X-100; immunoprecipitation and western blot
[3] = target: T2, CD82 (Tspan-27) (human (endogenous in A2780, OVCAR-3, SKOV-3 and A2780cis cells)); assay: cross-linking + co-IP; A2780 cells treated first with 2-BP and then with DSP or DTSSP; anti-CD82 or anti-claudin-7 precipitates
[4] = target: T2, CD82 (Tspan-27) (human (endogenous in A2780, OVCAR-3, SKOV-3 and A2780cis cells)); assay: co-IP; A2780 cells lysed in 1% Triton X-100 buffer; lysates precipitated with antibodies to the studied molecules, western blot
[5] = target: CD9 (Tetraspanin-29) (human (endogenous in A2780 and OVCAR-3 cells)) (UniProt P21926); assay: as above
[6] = target: T1, claudin-7 (human (endogenous in A2780, OVCAR-3, SKOV-3 and A2780cis cells)); assay: as above
[7] = target: T2, CD82 (Tspan-27) (human (endogenous in A2780, OVCAR-3, SKOV-3 and A2780cis cells)); assay: co-IP; SKOV-3 cells lysed in 1% Triton X-100 buffer; lysates precipitated with antibodies to the studied molecules, western blot
[8] = target: claudin-1 (human (endogenous in A2780, OVCAR-3 and SKOV-3 cells)) (UniProt O95832); assay: as above
[9] = target: T2, CD82 (Tspan-27) (human (endogenous in A2780, OVCAR-3, SKOV-3 and A2780cis cells)); assay: co-IP; A2780cis (cisplatin-resistant) cells lysed in 1% Triton X-100 buffer; lysates precipitated with antibodies to the studied molecules, western blot
[10] = target: T1, claudin-7 (human (endogenous in A2780, OVCAR-3, SKOV-3 and A2780cis cells)); assay: condition: only cells treated with 50 μM 2-BP (palmitoylation inhibitor); co-IP; OVCAR-3 cells treated with the palmitoylation inhibitor 2-BP (50 μM, 20 h, 37 °C), RIPA buffer; anti-CD82 or anti-claudin-7 precipitates
[11] = target: T2, CD82 (Tspan-27) (human (endogenous in A2780, OVCAR-3, SKOV-3 and A2780cis cells)); assay: cross-linking + co-IP; SKOV-3 cells treated with DSP or DTSSP (1 mM, 30 min, 37 °C), claudin-7 precipitates also after 2-BP beforehand, lysed in RIPA buffer; anti-CD82 or anti-claudin-7 precipitates
[12] = target: T2, CD82 (Tspan-27) (human (endogenous in A2780, OVCAR-3, SKOV-3 and A2780cis cells)); assay: co-IP; OVCAR-3 cells lysed in 1% Triton X-100 buffer; lysates precipitated with antibodies to the studied molecules, western blot
[13] = target: claudin-1 (human (endogenous in A2780, OVCAR-3 and SKOV-3 cells)) (UniProt O95832); assay: as above
[14] = target: T1, claudin-7 (human (endogenous in A2780, OVCAR-3, SKOV-3 and A2780cis cells)); assay: condition: only cells treated with 50 μM 2-BP (palmitoylation inhibitor); co-IP; SKOV-3 cells treated with the palmitoylation inhibitor 2-BP (50 μM, 20 h, 37 °C), RIPA buffer; anti-CD82 or anti-claudin-7 precipitates
[15] = target: T2, CD82 (Tspan-27) (human (endogenous in A2780, OVCAR-3, SKOV-3 and A2780cis cells)); assay: cross-linking + co-IP; OVCAR-3 cells treated with DSP or DTSSP (1 mM, 30 min, 37 °C), with or without 2-BP beforehand, lysed in RIPA buffer; anti-CD82 or anti-claudin-7 precipitates
[16] = target: claudin-4 (human (endogenous in A2780, OVCAR-3, SKOV-3 and A2780cis cells)) (UniProt O14493); assay: co-IP; A2780 cells lysed in 1% Triton X-100 buffer; lysates precipitated with antibodies to the studied molecules, western blot

Molecule	binding [1]	binding [2]	binding [3]	binding [4]	binding [5]	binding [6]	binding [7]	binding [8]	binding [9]	binding [10]	binding [11]	binding [12]	binding [13]	binding [14]	binding [15]	binding [16]
claudin-4 (from UniProt O14493 1-209)	no binding	binds	binds	binds	binds	binds weakly	binds	binds	binds	no binding	binds	binds	binds	no binding	binds	–
B1	no binding	binds	binds	binds	–	binds weakly	binds	binds	binds	no binding	binds	binds	binds	no binding	binds	binds weakly
